Measured values as given in US10745715B2, “Method and means for purifying retroviral vectors” (UCL BUSINESS PLC, priority 2014, dated 2020).

System: K562 cells
Assay: Sorting of K562 cells expressing Flankedccstreptag formats with streptavidin beads
Type: cell-based
Procedure: Transduced K562 were close to 100% positive for the transgenes after transduction. Positive cells were mixed with non-transduced (NT) K562 pre-sorting. The mixture was incubated with both streptavidin dynabeads (Life technologies, Cat. No. 65601) and streptavidin-microbeads (Miltenyi, Cat. No. 130-048-101) as per manufacturer protocol. The sorted cellular fraction was collected as well as flow-through fraction for both protocols. Sorting was assessed by streptavidin-APC staining and for eGFP positive cell populations 9 days post sorting by flow cytometry.
To establish that the two versions of Flankedccstreptag are able to purify lentivirus from cellular supernatant, an initial experiment was carried out involving sorting of K562 cells expressing these tags on their surface using streptavidin beads. We reasoned that if the tags could attach to a streptavidin matrix while expressed on cells with sufficient stability to allow sorting of expressing cells, they should be suitable for lentiviral capture too.
K562 cells were retrovirally transduced to express the two tags and transduction efficiencies were determined by eGFP expression using flow cytometry (FIG. 4 Transduced K562 plot). Subsequently, transduced cells were mixed with non-transduced K562 to assess the efficiency of sorting using two streptavidin-beads sourced from Life technologies (Dynabeads) and Miltenyi (Microbeads). Sorting was performed as per manufacturer protocol. Sorted cell fractions were collected for both sorting for each epitope tag as well as their respective flow-through. […] Sorting with streptavidin microbeads from Miltenyi was successful.

B1: flankedccstreptag-L8: Flankedccstreptag on CD8 stalk, transmembrane and short endodomain (protein)
chain: MGTSLLCWMALCLLGADHADAECHPQGPPCIEGRKSGGGGSPAPRPPTPAPTIASQPLSLRPEACRPAAGGAVHTRGLDFACDIYIWAPLAGTCGVLLLSLVITLYCNHRNRRRVCKCPRPVV
modifications: Flankedccstreptag-L8 amino acid sequence
notes: Flankedccstreptag on CD8 stalk, transmembrane and short endodomain
K562 cells, compared to flankedccstreptag-d8-x2-GPI
  binding efficiency to the streptavidin-APC stain: higher binding efficiency
Streptavidin microbeads (Miltenyi)
  sorting of tag-expressing K562 cells from mixture with NT K562: successful
streptavidin-dynabeads (Life technologies), eGFP
  sorting of tag-expressing K562 cells from mixture with NT K562: successfully sorted
